{
  "source": "patent US20190330347A1",
  "about": "(published 2019)",
  "biological_target": "biotin-labeled PD-1 antigen (UniProt Q15116 partial chain, biotin-labeled (site not stated))",
  "sequence (Q15116 25-167)": "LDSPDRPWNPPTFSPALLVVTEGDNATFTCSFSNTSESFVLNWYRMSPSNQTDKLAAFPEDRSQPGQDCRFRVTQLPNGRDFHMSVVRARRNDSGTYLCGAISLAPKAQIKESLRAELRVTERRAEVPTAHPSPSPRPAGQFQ",
  "assay": "BLI (Fortebio)",
  "data": [
    {"binder": "humanized H2L2 antibody (wild-type IgG-like antibody H2L2 against PD-1) (antibody) heavy: EVQLVQSGGGLVQPGGSLKLSCAASGFTFSSYGMSWVRQAPGKGLDWVATISGGGRDTYYPDSVKGRFTISRDNSKNNLYLQMNSLRAEDTALYYCARQKGEAWFAYWGQGTLVTVSSASTKGPSVFPLAPCSRSTSESTAALGCLVKDYFPEPVTVSWNSGALTSGVHTFPAVLQSSGLYSLSSVVTVPSSSLGTKTYTCNVDHKPSNTKVDKRV[human IgG4 Fc with S228P (EU numbers) left out here] light: DIVLTQSPASLAVSPGQRATITCRASESVDNYGISFMNWFQQKPGQPPKLLIYAASNKGTGVPARFSGSGSGTDFTLNINPMEENDTAMYFCQQSKEVPWTFGGGTKLEIKRTVAAPSVFIFPPSDEQLKSGTASVVCLLNNFYPREAKVQWKVDNALQSGNSQESVTEQDSKDSTYSLSSTLTLSKADYEKHKVYACEVTHQGLSSPVTKSFNRGEC", "values": [
      {"measurement": "Kd", "result": 0.27, "unit": "nM"}
    ]}
  ]
}
